# Assay results taken from the supplement of paper PMC8728848.
# Some of the results follow.
# B1: LecB LY19 (Pseudomonas aeruginosa) (protein)
# chain: MATQGVFTLPANTQFGVTAFANSAGTQTVNVQVNNETVATFTGQSTNNGIIGSKVLNSGGGGKVQILVSVNGRSSDLVSAQVILANELNFALVGSEDSTDNDYNDAVVVINWPLG
# What was measured:
# Test in all cases: glycan array binding signal (z-score within array); higher = stronger binding
# Settings in all cases: glycan notation: IUPAC condensed, linker removed
# [1] = biological target: Fuc(a1-2)[Gal(a1-3)]Gal(b1-4)GlcNAc(b1-2)Man(a1-3)[Fuc(a1-2)[Gal(a1-3)]Gal(b1-4)GlcNAc(b1-2)Man(a1-6)]Man(b1-4)GlcNAc(b1-4)[Fuc(a1-6)]GlcNAc
# Procedure, shortened: (§1)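 From the Consortium for Functional Glycomics database, 3228 arrays were curated, keeping only those whose protein sequence was available. Binding is given as a within-array Z-score averaged across arrays sharing a protein sequence and across linkers. Negative Z-scores can be read as non-binding.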
# [2] = biological target: Fuc(a1-2)[Gal(a1-3)]Gal(b1-4)GlcNAc(b1-3)GalNAc
# Procedure, shortened: as §1
# [3] = biological target: Fuc(a1-2)[Gal(a1-3)]Gal(b1-4)GlcNAc(b1-3)[Fuc(a1-2)[Gal(a1-3)]Gal(b1-4)GlcNAc(b1-6)]GalNAc
# Procedure, shortened: as §1
# [4] = biological target: Fuc(a1-2)[Gal(a1-3)]Gal(b1-4)GlcNAc(b1-6)GalNAc
# Procedure, shortened: as §1
# [5] = biological target: Fuc(a1-2)[Gal(a1-3)]Gal(b1-4)[Fuc(a1-3)]Glc
# Procedure, shortened: as §1
# [6] = biological target: Fuc(a1-2)[Gal(a1-3)]Gal(b1-4)[Fuc(a1-3)]GlcNAc
# Procedure, shortened: as §1
# [7] = biological target: Fuc(a1-2)[Gal(a1-3)]Gal(b1-4)[Fuc(a1-3)]GlcNAc(b1-3)GalNAc
# Procedure, shortened: as §1
# [8] = biological target: Fuc(a1-2)[Gal(a1-4)]Gal(b1-4)GlcNAc
# Procedure, shortened: as §1
# [9] = biological target: Fuc(a1-2)[GalNAc(a1-3)]Gal
# Procedure, shortened: as §1
# [10] = biological target: Fuc(a1-2)[GalNAc(a1-3)]Gal(b1-3)GalNAc(a1-3)[Fuc(a1-2)]Gal(b1-4)GlcNAc
# Procedure, shortened: as §1
# [11] = biological target: Fuc(a1-2)[GalNAc(a1-3)]Gal(b1-3)GalNAc(b1-3)Gal(a1-4)Gal(b1-4)Glc
# Procedure, shortened: as §1
# [12] = biological target: Fuc(a1-2)[GalNAc(a1-3)]Gal(b1-3)GlcNAc
# Procedure, shortened: as §1
# [13] = biological target: Fuc(a1-2)[GalNAc(a1-3)]Gal(b1-3)GlcNAc(b1-2)Man(a1-3)[Fuc(a1-2)[GalNAc(a1-3)]Gal(b1-3)GlcNAc(b1-2)Man(a1-6)]Man(b1-4)GlcNAc(b1-4)GlcNAc
# Procedure, shortened: as §1
# [14] = biological target: Fuc(a1-2)[GalNAc(a1-3)]Gal(b1-3)GlcNAc(b1-2)Man(a1-3)[Fuc(a1-2)[GalNAc(a1-3)]Gal(b1-3)GlcNAc(b1-2)Man(a1-6)]Man(b1-4)GlcNAc(b1-4)[Fuc(a1-6)]GlcNAc
# Procedure, shortened: as §1
# [15] = biological target: Fuc(a1-2)[GalNAc(a1-3)]Gal(b1-3)GlcNAc(b1-3)GalNAc
# Procedure, shortened: as §1
# [16] = biological target: Fuc(a1-2)[GalNAc(a1-3)]Gal(b1-3)GlcNAc(b1-6)GalNAc
# Procedure, shortened: as §1
# [17] = biological target: Fuc(a1-2)[GalNAc(a1-3)]Gal(b1-4)Glc
# Procedure, shortened: as §1
# [18] = biological target: Fuc(a1-2)[GalNAc(a1-3)]Gal(b1-4)GlcNAc
# Procedure, shortened: as §1
# [19] = biological target: Fuc(a1-2)[GalNAc(a1-3)]Gal(b1-4)GlcNAc(b1-2)Man
# Procedure, shortened: as §1
# [20] = biological target: Fuc(a1-2)[GalNAc(a1-3)]Gal(b1-4)GlcNAc(b1-2)Man(a1-3)[Fuc(a1-2)[GalNAc(a1-3)]Gal(b1-4)GlcNAc(b1-2)Man(a1-6)]Man(b1-4)GlcNAc(b1-4)GlcNAc
# Procedure, shortened: as §1
# [21] = biological target: Fuc(a1-2)[GalNAc(a1-3)]Gal(b1-4)GlcNAc(b1-2)Man(a1-3)[Fuc(a1-2)[GalNAc(a1-3)]Gal(b1-4)GlcNAc(b1-2)Man(a1-6)]Man(b1-4)GlcNAc(b1-4)[Fuc(a1-6)]GlcNAc
# Procedure, shortened: as §1
# [22] = biological target: Fuc(a1-2)[GalNAc(a1-3)]Gal(b1-4)GlcNAc(b1-3)Gal(b1-4)GlcNAc
# Procedure, shortened: as §1
# [23] = biological target: Fuc(a1-2)[GalNAc(a1-3)]Gal(b1-4)GlcNAc(b1-3)Gal(b1-4)GlcNAc(b1-3)Gal(b1-4)GlcNAc
# Procedure, shortened: as §1
# [24] = biological target: Fuc(a1-2)[GalNAc(a1-3)]Gal(b1-4)GlcNAc(b1-3)GalNAc
# Procedure, shortened: as §1
# [25] = biological target: Fuc(a1-2)[GalNAc(a1-3)]Gal(b1-4)GlcNAc(b1-3)[Fuc(a1-2)[GalNAc(a1-3)]Gal(b1-4)GlcNAc(b1-6)]GalNAc
# Procedure, shortened: as §1
# [26] = biological target: Fuc(a1-2)[GalNAc(a1-3)]Gal(b1-4)GlcNAc(b1-6)GalNAc
# Procedure, shortened: as §1
# [27] = biological target: Fuc(a1-2)[GalNAc(a1-3)]Gal(b1-4)[Fuc(a1-3)]GlcNAc
# Procedure, shortened: as §1
# [28] = biological target: Fuc(a1-2)[GalNAc(a1-3)]Gal(b1-4)[Fuc(a1-3)]GlcNAc(b1-3)GalNAc
# Procedure, shortened: as §1
# [29] = biological target: Fuc(a1-2)[GalNAc(a1-4)]Gal(b1-4)GlcNAc
# Procedure, shortened: as §1
# [30] = biological target: Fuc(a1-2)[GalNAc(b1-3)]Gal
# Procedure, shortened: as §1
binder,measurement,setting,value
B1,glycan array binding signal (z-score),[1],0.437
same,glycan array binding signal (z-score),[2],-0.341
same,glycan array binding signal (z-score),[3],-0.152
same,glycan array binding signal (z-score),[4],-0.52
same,glycan array binding signal (z-score),[5],0.738
same,glycan array binding signal (z-score),[6],1.39
same,glycan array binding signal (z-score),[7],0.554
same,glycan array binding signal (z-score),[8],1.6
same,glycan array binding signal (z-score),[9],0.034
same,glycan array binding signal (z-score),[10],-0.497
same,glycan array binding signal (z-score),[11],-0.53
same,glycan array binding signal (z-score),[12],-0.265
same,glycan array binding signal (z-score),[13],-0.389
same,glycan array binding signal (z-score),[14],0.27
same,glycan array binding signal (z-score),[15],-0.542
same,glycan array binding signal (z-score),[16],-0.528
same,glycan array binding signal (z-score),[17],-0.432
same,glycan array binding signal (z-score),[18],-0.375
same,glycan array binding signal (z-score),[19],-0.497
same,glycan array binding signal (z-score),[20],-0.36
same,glycan array binding signal (z-score),[21],0.035
same,glycan array binding signal (z-score),[22],-0.099
same,glycan array binding signal (z-score),[23],-0.443
same,glycan array binding signal (z-score),[24],-0.512
same,glycan array binding signal (z-score),[25],-0.024
same,glycan array binding signal (z-score),[26],-0.492
same,glycan array binding signal (z-score),[27],0.685
same,glycan array binding signal (z-score),[28],-0.45
same,glycan array binding signal (z-score),[29],2.12
same,glycan array binding signal (z-score),[30],-0.282
